Among all 94,000 compounds or so, about 4,000 (4.3%) were called active. The inconclusive results got no clear call from the source; some entries with a clear call stand among them for comparison. Calls follow the shape of the dose curve; as a rule, active = well fitted inhibition curve with a large enough effect; inconclusive = small, poorly fitted or top-dose-only effect; inactive = no such curve, though single readings can be large or run the other way. Potencies beside an inconclusive call are fits to weak or partial responses and may not hold up.
assay: Cytotoxic Profiling in NIH 3T3 Cell Line of Diverse Libraries Using Quantitative High-Throughput Screening; details: NIH 3T3 viability, CellTiter-Glo ATP luminescence, 48-72 h; series mostly up to 96.7 µM; also: nearly all actives have a fitted effect of over 55% in size
Procedure, shortened: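 Viability of NIH 3T3 cells after 48 or 72 hr compound treatment at 37 °C was assessed by CellTiter-Glo, with luminescence imaged following a 10 min room-temperature step.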
Potency is read from the fitted curve at half-maximal effect; tags tell the direction and shape of the fitted curve.

Row | SMILES | Potency
1 | Cc1cccc([S+](=O)([O-])N2CCC3(CC2)OCCN(c2cccnc2)C3=O)c1 | inconclusive: 22.4 µM [inhibitor, partial curve, poor fit]
2 | O=C(O)c1ccc(-c2cccc(C(F)(F)F)c2)cc1 | inactive
3 | CCCn1nc(C)cc1CN(C)C(=O)Cn1nc2n(c1=O)CCC(N)CC2 (stereo unspecified) | inactive
4 | Cc1ccc(NC(=O)N2CCc3c(C(=O)NCc4ccco4)cccc32)cc1 | inconclusive: 50.1 µM [inhibitor, partial curve, poor fit]
5 | CCc1ccc(C(=O)N2CCC3(CC2)OCC(C(=O)NC2CC2)N3C(=O)c2cccc(C)c2)cc1 (stereo unspecified) | inactive
6 | O=C(NC[C@H]1O[C@@H](CC(=O)N2CCc3ccccc32)[C@H](O)[C@@H]1O)c1ccco1 | inconclusive: 126 µM [inhibitor, single point]
7 | Cc1ccccc1C(=O)Nc1ccc([C@H]2OCC(=O)N(CC(C)C)[C@@H]2CO)cc1 | inconclusive: 70.8 µM [inhibitor, partial curve, poor fit]
8 | CCO[C@@H]1COCC[C@H]1NC(=O)c1ccoc1COc1ccc(C)cc1 | inactive
9 | COCCNC(=O)C1CCCCN1Cc1ccc(-c2ccccc2OC)cc1 (stereo unspecified) | inconclusive: 50.1 µM [inhibitor, partial curve, poor fit]
10 | COC(=O)NC1CCCN(Cc2cccc(-c3ccc(C)c(Cl)c3)c2)C1 (stereo unspecified) | inconclusive: 56.2 µM [inhibitor, partial curve, poor fit]
11 | CN(C)C(=O)c1ccnc(-c2nnc3ccc(NC4CCCCC4)nn23)c1 | inconclusive: 100 µM [inhibitor, single point]
12 | C1=C(c2nc(-c3cncnc3)cc3c2ccn3Cc2cccnc2)CCOC1 | inconclusive: 17.8 µM [inhibitor, full curve, poor fit]
13 | COc1cccc(S(=O)(=O)N2C[C@@H](Oc3ccccc3)C[C@@H]2C(=O)N2CCOCC2)c1 | inactive
14 | COc1ccc(C2Cn3cnc(C(=O)N4CCC(C(=O)NCc5ccco5)CC4)c3CO2)cc1 (stereo unspecified) | inactive
15 | CC(=O)N1CCCC2(C1)CN(C)c1ccc(C(=O)NCC3CC3)cc12 (stereo unspecified) | inconclusive: 56.2 µM [inhibitor, partial curve, poor fit]
16 | CC(C)OCCCNC(=O)Cn1nc2c(cc1=O)CCCC2 | inactive
17 | Cn1c([C@H]2CCN(Cc3ccc4c(c3)OCO4)C2)nc2ccccc21 | inconclusive: 79.4 µM [inhibitor, partial curve, poor fit]
18 | O=C1CC2(CCN(C(=O)C3CCN(C(=O)Cc4cccc(Cl)c4)CC3)CC2)Oc2ccccc2N1 | inconclusive: 50.1 µM [inhibitor, partial curve, poor fit]
19 | O=C1c2cnc(-c3ccsc3)nc2OCCN1c1cccc(C(F)(F)F)c1 | active: 112 µM
20 | O=C(c1ccc(N2CC3CC(C2)[C@H]2CCCC(=O)N2C3)nc1)N1CCN(c2ccccn2)CC1 (stereo partly specified) | inconclusive: 70.8 µM [inhibitor, single point]
21 | O=C1CC(c2ccccc2)N(S(=O)(=O)c2cccc3cccnc23)CCCCCCN1 (stereo unspecified) | inconclusive: 50.1 µM [inhibitor, partial curve, poor fit]
22 | Cc1noc(C)c1-c1cc2cc(C(C)C)oc2c(-c2cccc(CO)c2)n1 | inconclusive: 56.2 µM [inhibitor, partial curve, poor fit]

Row | SMILES | Potency
23 | Cn1cc(CN2CCOC[C@H]2c2nc(C(C)(C)C)co2)c2ccccc21 | inconclusive: 100 µM [inhibitor, partial curve, poor fit]
24 | CCOc1ccc(-c2noc(-c3nc(C)no3)n2)cc1 | inactive
25 | O=C(NC1CCCCC1)N1CCCCCC1c1nc(-c2ccncc2)no1 (stereo unspecified) | inconclusive: 50.1 µM [inhibitor, partial curve, poor fit]
26 | CCOc1ccc(CN2CCC(CO)(Cc3ccccc3Cl)CC2)cc1 | inconclusive: 79.4 µM [inhibitor, partial curve]
27 | O=C1CC(c2noc(-c3ccccc3)n2)CN1c1ccc(Cl)cc1 (stereo unspecified) | inconclusive: 50.1 µM [inhibitor, single point]
28 | COc1ccc(CNC(=O)C2CCCCN2Cc2ccc(-c3ccccc3OC)cc2)cc1OC (stereo unspecified) | inconclusive: 12.6 µM [inhibitor, full curve, poor fit]
29 | COc1cccc(NC(=O)CCC2CCN(C(=O)c3cc4ccccc4cn3)CC2)c1 | inconclusive: 50.1 µM [inhibitor, partial curve, poor fit]
30 | Cc1ccsc1CN1CCCN(S(=O)(=O)c2ccccc2)CCC(=O)NCC1 | inactive
31 | Cc1nc(CCC(=O)N2CCn3nc(C(=O)Nc4ccccc4)cc3C2)n[nH]1 | inactive
32 | CC(C)CN1C(=O)C(C)(C)[S+](=O)([O-])[C@H]2CN(Cc3cccc(C(=O)O)c3)C[C@@H]21 | inconclusive: 56.2 µM [inhibitor, partial curve, poor fit]
33 | C=CCCC(CN1CCCOCC1)Oc1ncc(Cl)cn1 (stereo unspecified) | inactive
34 | O=C(NC1CCCC1)C1CCCN(Cc2cccc(-c3ccc(F)cc3F)c2)C1 (stereo unspecified) | active: 39.8 µM
35 | O=C(c1ccoc1)N1CCCC(CCc2ccc(F)c(F)c2)C1 (stereo unspecified) | inconclusive: 50.1 µM [inhibitor, partial curve]
36 | O=C(COc1ccccc1)N1CCC2(CC1)NC(=O)N(c1ccccc1Cl)N2 | inconclusive: 50.1 µM [inhibitor, partial curve, poor fit]
37 | O=C(NCc1ccc2c(c1)OCO2)c1ccc2nnc(C3CCOCC3)n2c1 | inactive
38 | COc1ccc(C(=O)N2CCn3c(nnc3-c3ccncc3)C2)cc1 | inactive
39 | COc1cccc(CNC(=O)C2CCc3nnc(CN[S+](=O)([O-])c4ccccc4Cl)n32)c1 (stereo unspecified) | inactive
40 | Nc1ncccc1CN1CCN(C(=O)CO)CC(C(=O)O)C1 (stereo unspecified) | inactive
41 | O=C1NCc2ccccc2CC12CCCN(Cc1ccccc1F)C2 (stereo unspecified) | inactive
42 | O=C(c1cc(F)ccc1F)N1CCC(Cc2nc(-c3ccccc3)no2)CC1 | inconclusive: 14.1 µM [inhibitor, partial curve, poor fit]
43 | CC(=O)N1CCN(C(=O)C[C@@H]2c3nc(-c4ccsc4)sc3C[C@@H]3[C@](C)(CO)[C@H](O)CC[C@]32C)CC1 | inconclusive: 25.1 µM [inhibitor, partial curve, poor fit]
44 | COc1ccc(-c2cnc([C@@H]3COCCN3Cc3ccc(C)cc3)[nH]2)cc1 | inconclusive: 112 µM [inhibitor, single point]

Row | SMILES | Potency
45 | CCS(=O)(=O)N1CCc2n[nH]c(=O)n2CC1 | inactive
46 | COc1ccc(CC(=O)N2CCN(c3ccc4nnc(C5CC5)n4n3)CC2)cc1 | inconclusive: 39.8 µM [inhibitor, partial curve]
47 | Cc1noc([C@@H](C)NS(C)(=O)=O)c1C(=O)O | inactive
48 | CN(C1CCc2nn(CC3CC3)c(=O)n2CC1)S(=O)(=O)c1ccccc1F (stereo unspecified) | inconclusive: 50.1 µM [inhibitor, partial curve, poor fit]
49 | Cc1noc(C)c1[S+](=O)([O-])NC1CCN(c2ccc3nnc(-c4ccccc4)n3n2)C1 (stereo unspecified) | inconclusive: 44.7 µM [inhibitor, partial curve, poor fit]
50 | CC(=O)Nc1ccc(CN2CC3CCC(C2)N3c2ccc(C(F)(F)F)cc2)cc1 | inconclusive: 44.7 µM [inhibitor, partial curve, poor fit]
51 | Cc1noc2ccc(-c3ccccc3Oc3ccccc3)nc12 | inconclusive: 56.2 µM [inhibitor, partial curve, poor fit]
52 | Cn1cccc1C(=O)C(=O)Nc1nn(C)c2cccc(N3CCOC3=O)c12 | inactive
53 | O=C(NCc1cccc(Cl)c1)C1CCN(c2nc3ncccc3o2)CC1 | inactive
54 | O=C(c1ccccc1F)N1CCC2(CC1)C(=NC1CCCCC1)NC(=O)N2c1cc(F)cc(F)c1 | inconclusive: 35.5 µM [inhibitor, partial curve]
55 | O=C(NCc1cccs1)c1nc2sccn2c1-c1cccc(C(F)(F)F)c1 | inconclusive: 50.1 µM [inhibitor, partial curve, poor fit]
56 | COc1ccc(NC(=O)C2(C)CCc3cnc(N4CCOCC4)nc32)cn1 (stereo unspecified) | inconclusive: 44.7 µM [inhibitor, partial curve, poor fit]
57 | O=C(N[C@@H]1CCOC[C@H]1Oc1cccc(F)c1)c1cnc2c(c1)CCC2 | inactive
58 | O=C(Nc1ccccc1)N1CCn2c(nn(-c3ccc(F)cc3)c2=O)C1 | inactive
59 | O=C1NCC2(CCN(Cc3cccc4ccccc34)CC2)Oc2ccccc21 | inconclusive: 70.8 µM [inhibitor, single point]
60 | CC1=C[C@@H](CNC(=O)C2CCCCC2)[C@H](C(C)C)C[C@H]1Cc1nc2ccc(F)cc2[nH]1 | inconclusive: 28.2 µM [inhibitor, full curve, poor fit]
61 | Cn1ccnc1CNc1nccc(-c2cnn(-c3ccccc3F)c2)n1 | inconclusive: 56.2 µM [inhibitor, partial curve, poor fit]
62 | CCCCS(=O)(=O)Nc1ccc([C@H]2OCC(=O)N(Cc3ccccc3)[C@@H]2CO)cc1 | inconclusive: 89.1 µM [inhibitor, partial curve, poor fit]
63 | Cc1ccccc1C(=O)N1CCC(C(NC(=O)c2ccccc2Cl)C(=O)N2CCCCC2)CC1 (stereo unspecified) | inactive
64 | COc1ccc(C(=O)N2C[C@@H]3C[C@H](C2)c2c(NC(=O)Nc4ccccc4)ccc(=O)n2C3)cc1 | inactive
65 | O[C@@H]1C[C@@H](c2nnc3n2CCN(Cc2ccc4c(c2)CCO4)C3)N(Cc2ccccc2)C1 | inactive
66 | CCNC(=O)O[C@H]1C(=O)N(C)C2(CCN(C(=O)Cc3cccs3)CC2)[C@@H]1C(=O)OCC | inconclusive: 70.8 µM [inhibitor, partial curve, poor fit]
